Over roughly 16,000 sequences, “Z-score” has its median near -0.37; the highest 2% begin near 3.2. The list shows a part of the results.
test system: RBM10 RRM1-ZnF (GST-tagged construct); assay: RNAcompete 7-mer binding Z-score; higher = stronger binding preference
Experimental: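 RNAcompete: 20 pmol GST-tagged RBM10 RNA-binding constructs were incubated with a designed RNA pool of about 241,000 sequences up to 41 nt (1.5 nmol) on glutathione beads for 30 min at 4 °C and washed. Bound RNAs were identified by microarray hybridisation. Each RNA 7-mer is scored by a one-sided Z-score of its enrichment, computed over probes that contain the 7-mer within longer pool sequences.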

Sequence | RNAcompete 7-mer binding Z-score
UUAGGUU | 0.69
GUUUUAU | -0.425
CAAAAAC | -0.772
UUUAUUU | -0.678
CCCAAAC | -0.672
CGCUUGU | -0.769
ACUAAGC | -0.493
AAGCGGG | 3.02
GUUAUAC | -0.243
CGAGGUC | -0.0674
GGGCGUC | 1.13
UAGUCGG | 0.404
CGGACUA | 0.0105
CAAGAGC | -0.0479
GGGUGGC | 2.89
UUAUAAG | -0.249
CGACAUG | 0.192
GGCUUUG | 0.0105
CCUACAG | -0.789
GGGAAAU | 2.91
CAGCAGC | -0.337
CUUCGCU | -0.906
CGCUCCC | -0.587

Sequence | RNAcompete 7-mer binding Z-score
ACUGGCC | -0.451
GCGACAA | 0.199
CCCCGCG | -0.113
GAAGACA | 0.316
UCGCAAC | -0.694
AACCGUG | -0.331
GACUUUU | -0.681
CCCUUAU | -0.831
AGUGUUC | -0.448
AGAAAUC | -0.698
GCAUCGU | -0.23
AGUCCUG | -0.561
UGUAGGG | 3.6
AUUAAGG | 1.2
UGUUGUC | -0.574
GAAUAUG | 0.69
CAGAGUC | -0.373
AACUCCU | -0.87
AGGACCA | -0.279
AGUAAUC | -0.389
GCAAGGU | 1.94
UUUACCU | -0.935
GACGCGA | -0.314

Sequence | RNAcompete 7-mer binding Z-score
UUUACCC | -0.857
GUUUUCA | -0.483
GACCGCG | -0.678
UAUUUAG | -0.383
UCCUUGC | -0.733
CUCGUAA | -0.779
AUAUUCG | -0.396
UUGGUGU | 1.51
UGCUUGC | -0.675
UGACUGC | -0.519
UGCGUAC | -0.0999
ACCGAAG | -0.509
CCGCAGC | -0.467
CUAACUU | -0.834
UUCGCCC | -0.701
CUUCUUG | -0.776
GUCUGGC | -0.249
GAAGUUU | -0.301
GUGCAAU | 0.378
GAUUCAU | -0.509
GUCUGUG | -0.0187
UCAGUAG | 0.183
GCGUGCA | 0.205

Sequence | RNAcompete 7-mer binding Z-score
UGUCGUC | -0.532
ACCUUCU | -0.951
ACUCCCU | -0.753
UAGAGAC | 0.153
ACGAGGC | 0.319
UUUGUAG | -0.321
ACCAUCA | -0.815
CGUACGA | -0.555
CACGGCU | -0.49
AUGAACU | -0.425
UGGGCAA | 1.82
UUUGCAG | -0.405
GGAACCG | 0.94
UCCAUAA | -0.88
UAGACAC | -0.363
UUUCCAU | -0.74
AAUAUUU | -0.834
AGCCGGG | 0.907
CACAACG | -0.513
GGACCUC | 0.069
AGUCGAU | -0.106
GUGUCAA | 0.00404
GUUGAGA | 0.891

Sequence | RNAcompete 7-mer binding Z-score
CCGGGGC | 0.962
CCUAAUU | -0.772
CGGGUCA | 1.1
UUCCUUC | -0.782
GUCACGG | 0.936
UUCUUCU | -0.756
GAUCCUG | -0.691
AUUCAUG | -0.532
CCUAGGG | 0.735
AAGACUA | -0.227
GAAGCAA | 0.264
AUAGCAU | -0.379
UAAGGUA | 1.5
CGAGUAA | 0.144
AGCUGGC | 0.16
CUCUACA | -0.831
CUUGCUU | -0.893
CCGGGGA | 1.27
AUAAGAA | 0.254
AUGAUCA | -0.24
AGGGCCC | -0.35
GCUGGAU | 0.586
GAUACCG | -0.402

Sequence | RNAcompete 7-mer binding Z-score
AUGCCUU | -0.831
CCCUAAC | -0.711
GUUCCGG | 0.192
ACAUUGU | -0.444
CUGUGUU | -0.854
CAAACCG | -0.633
UAUGUUG | -0.259
CCACAAU | -0.811
GCCCCUA | -0.386
AAUUGCC | -0.626
CGACAUU | -0.506
GAACGCA | -0.142
GUUAAUA | -0.233
UAGAGCC | -0.376
AUGUUCG | -0.399
GCCUGCG | -0.383
CGAUGCC | -0.542
GAACAGC | -0.253
UACGAAA | -0.0739
CGCCAGC | -0.165
CCAGGGG | 1.46
UCGCUUA | -0.545
AGGCACG | 0.209

Sequence | RNAcompete 7-mer binding Z-score
GCCGACU | -0.75
CCCUGAU | -0.457
CUGCCGG | 0.00404
GCGAUAA | 0.235
CUGCGGC | 0.0138
GUGAAUG | 1.17
UGUGUGC | -0.035
CCACGUC | -0.513
ACAUGGA | 1.7
CGGAGGG | 2.91
AGAACUC | -0.759
CCGGAUU | -0.441
CGCUCCA | -0.5
AUCGGUA | 0.404
CGGGCAG | 1.88
GUUAUUG | 0.329
UCGCGAU | -0.701
UGACCGC | -0.438
CUACCGG | -0.542
ACACUGC | -0.61
AAAGAUA | 0.0333
ACACGGG | 1.81
GUAGGGC | 2.49

Sequence | RNAcompete 7-mer binding Z-score
GCAUCGG | 0.306
UUCGGCA | -0.529
CUACCCA | -0.818
GACGCUC | -0.681
CCGUGGG | 1.88
AAGGGAC | 3.18
CGUGCUU | -0.61
UAACUUA | -0.376
GGACGGG | 4.52
GUGGGUG | 4.14
ACUUCGG | -0.191
GUCCAAC | -0.672
UCCUCCG | -0.613
GAUGUCA | -0.178
GCACUGA | -0.0447
UGGGUGC | 2.92
CGGGACC | 0.582
CGUUUCC | -0.792
UGACAAC | -0.223
GUUCAUG | -0.279
CGGUUGA | 1.01
AUUCCGG | -0.555

Reference: the supplement of paper PMC5499739
